Assay results: PubChem BioAssay AID485360 (National Center for Advancing Translational Sciences (NCATS), 2010)
Screen size: about 230,000 compounds; about 1,500 (0.65%) were called active. Inconclusive results, whose numbers are uncertain, are shown with a selection of clear calls. Calls come from the whole dose curve; as a rule, active = well fitted inhibition curve with a large enough effect; inconclusive = small, poorly fitted or top-dose-only effect; inactive = no such curve, though single readings can be large or run the other way. Potencies of inconclusive entries are doubtful fits and often do not repeat.

The molecules below were run against Lethal(3)malignant brain tumor-like protein 1 (Homo sapiens) (UniProt Q9Y468) (assay: qHTS Assay for the Inhibitors of L3MBTL1). Conditions: AlphaScreen L3MBTL1–H3K9me1 peptide binding; activity, negative = inhibition: at 57.1 µM (top of the series).
Sequence of UniProt Q9Y468 (Q9Y468 whole entry, looked up): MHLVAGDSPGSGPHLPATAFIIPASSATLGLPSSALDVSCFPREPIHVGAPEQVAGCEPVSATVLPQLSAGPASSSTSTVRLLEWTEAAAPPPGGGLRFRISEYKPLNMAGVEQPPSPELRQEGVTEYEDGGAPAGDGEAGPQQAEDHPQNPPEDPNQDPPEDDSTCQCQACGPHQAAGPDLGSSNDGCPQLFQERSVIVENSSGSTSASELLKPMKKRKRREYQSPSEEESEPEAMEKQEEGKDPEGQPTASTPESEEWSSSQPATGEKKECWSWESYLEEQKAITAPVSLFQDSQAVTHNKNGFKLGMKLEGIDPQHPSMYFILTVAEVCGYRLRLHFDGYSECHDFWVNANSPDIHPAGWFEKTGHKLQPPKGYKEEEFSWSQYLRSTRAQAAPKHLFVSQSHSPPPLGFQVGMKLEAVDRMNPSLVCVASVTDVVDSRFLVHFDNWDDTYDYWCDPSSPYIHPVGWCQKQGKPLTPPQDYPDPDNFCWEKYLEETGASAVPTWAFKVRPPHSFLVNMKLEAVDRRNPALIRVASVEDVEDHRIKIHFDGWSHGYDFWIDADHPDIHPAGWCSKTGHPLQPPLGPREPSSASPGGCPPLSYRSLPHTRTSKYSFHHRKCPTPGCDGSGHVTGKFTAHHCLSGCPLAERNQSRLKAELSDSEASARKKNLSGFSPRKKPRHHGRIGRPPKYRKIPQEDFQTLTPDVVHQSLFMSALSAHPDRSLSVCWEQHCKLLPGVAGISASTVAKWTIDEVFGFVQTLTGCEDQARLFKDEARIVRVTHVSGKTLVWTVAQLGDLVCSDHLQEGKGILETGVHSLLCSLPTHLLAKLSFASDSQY
Procedure, shortened: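 AlphaScreen proximity signal between nickel-chelate acceptor and streptavidin donor beads (final 10 ug/mL) reports binding of 50 nM L3MBTL1 to 75 nM biotin-H3 K9me1 peptide; complex incubated with compounds 30 min at room temperature; cefsulodin titration as control.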
% is set by controls: 0 for no effect and ±100 for the full control effect; potency is the fitted concentration of half-maximal effect; tags give direction and shape of the fitted curve.
Note: nearly all actives have a fitted effect of over 60% in size.

| SMILES | Potency | activity, negative = inhibition |
| --- | --- | --- |
| C(=N\Nc1nc2ccccc2[nH]1)/C1CCCCC1 | inconclusive: 17.8 µM [inhibitor, partial curve] | – |
| CCc1cc(=O)oc2cc(C)c(CN3CCCC3)c(O)c12 | active: 3.98 µM | – |
| C=CCn1c(CCC(=O)Nc2ccc(C)c(Cl)c2)nnc1SCC(=O)Nc1ccccc1C | inconclusive: 6.31 µM [inhibitor, single point] | – |
| CN1CCN(/N=C/c2ccc(-c3ccc([N+](=O)[O-])cc3Cl)o2)CC1 | inconclusive: 7.94 µM [inhibitor, full curve, poor fit] | – |
| C=CCOC(=O)C(=O)/C=C/c1c(C)n(C)n(-c2ccccc2)c1=O | – | inactive: 10.4% |
| Cc1ccc(C)c(-n2c(C)cc(/C=N/NC(=O)c3c(C)nc4cc(C)ccn34)c2C)c1 | inconclusive: 4.47 µM [inhibitor, single point] | – |
| Cc1ccc(S(=O)(=O)Nc2cccc3ncccc23)s1 | inconclusive: 39.8 µM [inhibitor, single point] | – |
| O=C(Nc1ccc(S(=O)(=O)N2CCCC2)cc1)C1COc2ccccc2O1 (configuration not stated) | inconclusive: 5.01 µM [inhibitor, single point] | – |
| COc1cc2c(cc1NC(=O)CN(C)Cc1ccc(OC)c(OC)c1)oc1ccccc12 | inconclusive: 0.708 µM [inhibitor, single point] | – |
| CSc1ccccc1NC(=O)CN(C)C(=O)COc1cccc2cccnc12 | inconclusive: 22.4 µM [inhibitor, single point] | – |
| O=C1Nc2ccccc2/C1=C/c1cnc(-c2ccccc2)[nH]1 | inconclusive: 20 µM [inhibitor, partial curve] | – |
| CCCn1c2ccccc2c2nnc(SCc3[nH]c(=O)[nH]c3C(=O)CCCCC(=O)OCC)nc21 | inconclusive: 8.91 µM [inhibitor, single point] | – |
| O=[N+]([O-])c1ccc2nc(-c3ccccc3)oc2c1 | inconclusive: 0.631 µM [inhibitor, partial curve, poor fit] | – |
| O=C(NC(=S)Nc1ccccc1N1CCCC1)c1ccccc1[N+](=O)[O-] | inconclusive: 22.4 µM [inhibitor, single point] | – |
| c1ccc(N=Nc2cn[nH]c2-c2ccco2)cc1 | inconclusive: 15.8 µM [inhibitor, partial curve] | – |
| COc1cc2c(cc1OC)C1(CCCC1)C(N)=C2C#N | inconclusive: 7.08 µM [inhibitor, single point] | – |
| COCCN(C(=O)C1CCN(C(=O)c2ccccc2C)CC1)c1c(N)n(CC(C)C)c(=O)[nH]c1=O | – | inactive: 1.16% |
| Cc1cccc(NC2=C(NCCO)C(=O)c3ccccc3C2=O)c1 | inconclusive: 14.1 µM [inhibitor, partial curve] | – |
| CCOc1ccc(S(=O)(=O)Nc2ccncc2)c(C)c1C | inconclusive: 39.8 µM [inhibitor, single point] | – |
| C/C(N)=C(/C#N)C(=O)COC(=O)CNS(=O)(=O)c1c(F)cccc1F | – | inactive: 2.97% |
| C#CCOCCOCCOCCNc1nc(N2CCN(C(=O)[C@H](CCC(=O)O)n3cc(C(N)Cc4ccc(O)cc4)nn3)CC2)nc(N2CCN(C(=O)[C@H](Cc3cc4ccccc4[nH]3)n3cc(C(N)CC(C)C)nn3)CC2)n1 (some centres not stated) | inconclusive: 12.6 µM [inhibitor, partial curve] | – |

| SMILES | Potency | activity, negative = inhibition |
| --- | --- | --- |
| CC(C)(C)c1nc2ccc([N+](=O)[O-])cc2[nH]1 | inconclusive: 11.2 µM [inhibitor, partial curve, poor fit] | – |
| CCN(CC)CCNC(=O)c1ccc(CS(=O)(=O)c2ccc(Br)cc2)o1 | inconclusive: 4.47 µM [inhibitor, full curve] | – |
| O=C(CSc1ccccc1)Nc1nnc(-c2ccco2)o1 | inconclusive: 28.2 µM [inhibitor, single point] | – |
| COc1ccc(-c2noc(Cc3ccc(Cl)cc3)n2)cc1OC | inconclusive: 39.8 µM [inhibitor, single point] | – |
| CCOc1ccc(S(=O)(=O)Nc2ccn(C)n2)cc1 | – | inactive: -0.618% |
| COC(=O)Cc1c(C(=O)OC)nnn1-c1ccc(OC(F)(F)F)cc1 | inconclusive: 1 µM [inhibitor, full curve, poor fit] | – |
| CCCCNC(=S)N=Nc1c(O)[nH]c2ccccc12 | inconclusive: 15.8 µM [inhibitor, partial curve] | – |
| CCn1cnc2sc(C(=O)N(Cc3ccc(N(C)C)cc3)Cc3ccco3)c(C)c2c1=O | inconclusive: 25.1 µM [inhibitor, partial curve] | – |
| COC(=O)CSc1nc(-c2ccccc2)cc(-c2ccco2)c1C#N | inconclusive: 39.8 µM [inhibitor, single point] | – |
| COc1ccc(C2CC(=O)C3=C(C2)NC(C)=C(C#N)C3c2ccc(N(C)C)cc2)cc1 (configuration not stated) | inconclusive: 12.6 µM [inhibitor, partial curve] | – |
| CC(C)(C)NC(=O)C(=O)NNC(=O)c1ccccc1 | – | inactive: 1.94% |
| CCC(CC)C(=O)NCCc1ccc(S(N)(=O)=O)cc1 | inconclusive: 3.55 µM [inhibitor, single point] | – |
| O=C(N/N=C/c1cc2c3c(c1O)CCCN3CCC2)c1ccccc1O | inconclusive: 2.82 µM [inhibitor, full curve] | – |
| O=C(CCC(=O)c1cccs1)NNC(=O)c1ccccc1O | inconclusive: 28.2 µM [inhibitor, single point] | – |
| CN1C(=O)/C(=C/c2ccccc2OCc2ccccc2F)NC1=S | – | inactive: 0.951% |
| Cc1ccc(NC2c3ncccc3C(=O)N2c2ccccc2C)cc1C (configuration not stated) | inconclusive: 28.2 µM [inhibitor, single point] | – |
| Cn1ccnc1SCC(=O)c1ccc(Br)cc1 | – | inactive: -1.72% |
| Oc1ccc(/C=N/NC(=S)N/N=C/c2ccc(O)cc2)cc1 | inconclusive: 0.1 µM [inhibitor, partial curve, poor fit] | – |
| O=C1CC(c2c(F)cccc2Cl)C(n2cncn2)C(O)=C1C1NCCc2ccccc21 (configuration not stated) | inconclusive: 3.55 µM [inhibitor, partial curve, poor fit] | – |
| O=C(COC(=O)c1ccc(CO)cc1)Nc1ccc(OC(F)F)cc1 | – | inactive: 6.22% |
| Cc1ccc2nc(CCc3ccc(N)cc3)[nH]c2c1 | – | inactive: -16.4% |
